Test results from patent publication US11000038B2, “Pyridone compounds and agricultural and horticultural fungicides containing the same as active ingredients” (priority 2017, dated 2021).

Legend:
[1] = test system: cabbage Alternaria sooty spot fungi (Alternaia brassicicola); assay: Test Example C: cabbage Alternaria sooty spot, spray treatment of cabbage plants; assay type: in vivo; conditions: for Test C control value class (cabbage Alternaria sooty spot): control value=100{1-(n/3)}; for Test C control value: cabbage Alternaria sooty spot
From the text: [Test Example C] Cabbage Alternaria Sooty Spot
Test plants (cabbage variety: Shikidori) were cultivated until the cotyledons extended after the sowing of seeds.
<Control Value> Control value=100{1−(n/3)}

[2] = test system: gray mold fungi (Botrytis cinerea); assay: Test Example B: tomato gray mold, spray treatment of tomato plants; conditions: for Test B control value class (tomato gray mold): control value=100{1-(n/3)}; for Test B control value: tomato gray mold
[3] = test system: barley powdery mildew fungi (Blumeria graminis f. sp. hordei); assay: Test Example D: barley powdery mildew, spray treatment of barley plants; conditions: for Test D control value class (barley powdery mildew): control value=100{1-(n/3)}; for Test D control value: barley powdery mildew
[4] = test system: grape downy mildew fungus (Plasmopara viticola); assay: Test Example G: grape downy mildew, spray treatment of grape plants; conditions: for Test G control value class (grape downy mildew): 2.5 ml/pot, grape Neomuscat, 7 to 10 days from inoculation; for Test G control value: grape downy mildew, 7 to 10 days after inoculation
[5] = test system: wheat brown rust fungi (Puccinia recondita); assay: Test Example E: wheat brown rust, spray treatment of wheat plants; assay type: in vivo; conditions: for Test E control value class (wheat brown rust): control value=100{1-(n/3)}; for Test E control value: wheat brown rust
[6] = spray treatment of cabbage plants
[7] = spray treatment of tomato plants
[8] = spray treatment of barley plants
[9] = spray treatment of wheat plants

Structure (SMILES) | Test C control value ([1]; spray treatment) | Test B control value ([2]; spray treatment) | Test D control value ([3]; spray treatment) | Test G control value ([4]; 250 ppm spray) | Test E control value ([5]; spray treatment) | also measured
O=c1c(Br)cn(Cc2ccccc2Cl)c(-c2c(F)cc(F)cc2F)c1Cl [Compound 86] | – | – | – | – | – | Test C control value class (cabbage Alternaria sooty spot) [1, 6]: H (H shows the control value of more than 50%); Test B control value class (tomato gray mold) [2, 7]: L (L shows the control value of 50% or less); Test D control value class (barley powdery mildew) [3, 8]: L (L shows the control value of 50% or less); Test G control value class (grape downy mildew) ([4]; 250 ppm spray): L (L shows the control value of 50% or less); Test E control value class (wheat brown rust) [5, 9]: L (L shows the control value of 50% or less)
COc1ccc(C)c(-n2cc(Br)c(=O)c(Br)c2-c2c(F)cc(F)cc2F)c1 [Compound 218] | – | – | – | – | – | Test C control value [1, 6]: H (H shows the control value of more than 50%); Test B control value [2, 7]: H (H shows the control value of more than 50%); Test D control value [3, 8]: H (H shows the control value of more than 50%); Test G control value ([4]; 250 ppm spray (2.5 ml/pot)): H (H shows the control value of more than 50%); Test E control value [5, 9]: H (H shows the control value of more than 50%)
Cc1cn(-c2ccccc2)c(-c2ccc(F)cc2Br)c(C)c1=O [Compound 585] | H (H shows the control value of more than 50%) | H (H shows the control value of more than 50%) | L (L shows the control value of 50% or less) | L (L shows the control value of 50% or less) | H (H shows the control value of more than 50%) | –
COc1cc(F)c(-c2c(Cl)c(=O)c(Cl)cn2-c2ccccc2F)c(F)c1 [Compound 32] | – | – | – | – | – | Test C control value class (cabbage Alternaria sooty spot) [1, 6]: H (H shows the control value of more than 50%); Test B control value class (tomato gray mold) [2, 7]: H (H shows the control value of more than 50%); Test D control value class (barley powdery mildew) [3, 8]: L (L shows the control value of 50% or less); Test G control value class (grape downy mildew) ([4]; 250 ppm spray): L (L shows the control value of 50% or less); Test E control value class (wheat brown rust) [5, 9]: H (H shows the control value of more than 50%)
CC(C)c1ccccc1-n1cc(Br)c(=O)c(Br)c1-c1c(F)cc(F)cc1F [Compound 394] | H (H shows the control value of more than 50%) | H (H shows the control value of more than 50%) | L (L shows the control value of 50% or less) | H (H shows the control value of more than 50%) | H (H shows the control value of more than 50%) | –
COCCn1cc(Cl)c(=O)c(Cl)c1-c1c(F)cc(F)cc1F [Compound 210] | – | – | – | – | – | Test C control value [1, 6]: L (L shows the control value of 50% or less); Test B control value [2, 7]: L (L shows the control value of 50% or less); Test D control value [3, 8]: L (L shows the control value of 50% or less); Test G control value ([4]; 250 ppm spray (2.5 ml/pot)): H (H shows the control value of more than 50%); Test E control value [5, 9]: H (H shows the control value of more than 50%)
Cc1c(-n2cc(Br)c(=O)c(Cl)c2-c2c(F)cc(F)cc2F)cccc1[N+](=O)[O-] [Compound 320] | – | – | – | – | – | Test C control value [1, 6]: H (H shows the control value of more than 50%); Test B control value [2, 7]: H (H shows the control value of more than 50%); Test D control value [3, 8]: L (L shows the control value of 50% or less); Test G control value ([4]; 250 ppm spray (2.5 ml/pot)): L (L shows the control value of 50% or less); Test E control value [5, 9]: H (H shows the control value of more than 50%)
Cc1ccc(Cl)cc1-n1cc(C)c(=O)c(C)c1-c1ccccc1 [Compound 517] | L (L shows the control value of 50% or less) | H (H shows the control value of more than 50%) | L (L shows the control value of 50% or less) | L (L shows the control value of 50% or less) | L (L shows the control value of 50% or less) | –
CCc1c(-c2c(F)cc(F)cc2F)n(-c2cc(Br)ccc2C)cc(Br)c1=O [Compound 529] | H (H shows the control value of more than 50%) | H (H shows the control value of more than 50%) | H (H shows the control value of more than 50%) | L (L shows the control value of 50% or less) | H (H shows the control value of more than 50%) | –
Cc1ccc(Cl)cc1-n1cc(C)c(=O)c(C)c1-c1c(F)cccc1F [Compound 486] | L (L shows the control value of 50% or less) | H (H shows the control value of more than 50%) | H (H shows the control value of more than 50%) | L (L shows the control value of 50% or less) | H (H shows the control value of more than 50%) | –
Cc1cn(-c2ccccc2C(F)(F)F)c(-c2c(F)cc(F)cc2F)c(C)c1=O [Compound 476] | H (H shows the control value of more than 50%) | H (H shows the control value of more than 50%) | H (H shows the control value of more than 50%) | L (L shows the control value of 50% or less) | H (H shows the control value of more than 50%) | –
O=c1c(Br)cn(-c2ccccc2)c(-c2ccccc2F)c1Br [Compound 468] | H (H shows the control value of more than 50%) | H (H shows the control value of more than 50%) | L (L shows the control value of 50% or less) | L (L shows the control value of 50% or less) | L (L shows the control value of 50% or less) | –
CCc1c(-c2c(F)cccc2F)n(-c2cccc(C)c2C)cc(C)c1=O [Compound 497] | H (H shows the control value of more than 50%) | H (H shows the control value of more than 50%) | L (L shows the control value of 50% or less) | L (L shows the control value of 50% or less) | H (H shows the control value of more than 50%) | –
O=c1c(Cl)cn(C2CCCCC2)c(-c2c(F)cc(F)cc2F)c1Br [Compound 25] | – | – | – | – | – | Test C control value class (cabbage Alternaria sooty spot) [1, 6]: H (H shows the control value of more than 50%); Test B control value class (tomato gray mold) [2, 7]: H (H shows the control value of more than 50%); Test D control value class (barley powdery mildew) [3, 8]: L (L shows the control value of 50% or less); Test G control value class (grape downy mildew) ([4]; 250 ppm spray): L (L shows the control value of 50% or less); Test E control value class (wheat brown rust) [5, 9]: H (H shows the control value of more than 50%)
Cc1ccccc1-n1cc(Br)c(=O)c(Cl)c1-c1ccccc1F [Compound 377] | H (H shows the control value of more than 50%) | H (H shows the control value of more than 50%) | L (L shows the control value of 50% or less) | L (L shows the control value of 50% or less) | L (L shows the control value of 50% or less) | –
Cc1cccc(F)c1-c1c(Cl)c(=O)c(Br)cn1-c1ccccc1 [Compound 609] | H (H shows the control value of more than 50%) | H (H shows the control value of more than 50%) | L (L shows the control value of 50% or less) | L (L shows the control value of 50% or less) | H (H shows the control value of more than 50%) | –
CCc1c(-c2c(F)cccc2F)n(-c2ccccc2C)cc(Br)c1=O [Compound 507] | H (H shows the control value of more than 50%) | H (H shows the control value of more than 50%) | L (L shows the control value of 50% or less) | L (L shows the control value of 50% or less) | L (L shows the control value of 50% or less) | –
O=c1c(Cl)cn(-c2ccccc2)c(-c2c(F)cc(F)cc2F)c1Cl [Compound 14] | – | – | – | – | – | Test C control value class (cabbage Alternaria sooty spot) [1, 6]: H (H shows the control value of more than 50%); Test B control value class (tomato gray mold) [2, 7]: H (H shows the control value of more than 50%); Test D control value class (barley powdery mildew) [3, 8]: H (H shows the control value of more than 50%); Test G control value class (grape downy mildew) ([4]; 250 ppm spray): H (H shows the control value of more than 50%); Test E control value class (wheat brown rust) [5, 9]: H (H shows the control value of more than 50%)
Cc1cccc(Cl)c1-n1cc(Cl)c(=O)c(Cl)c1-c1ccc(F)cc1 [Compound 382] | L (L shows the control value of 50% or less) | H (H shows the control value of more than 50%) | L (L shows the control value of 50% or less) | L (L shows the control value of 50% or less) | H (H shows the control value of more than 50%) | –
COc1cc(F)c(-c2c(Cl)c(=O)c(Br)cn2C(C)C)c(F)c1 [Compound 19] | – | – | – | – | – | Test C control value class (cabbage Alternaria sooty spot) [1, 6]: H (H shows the control value of more than 50%); Test B control value class (tomato gray mold) [2, 7]: H (H shows the control value of more than 50%); Test D control value class (barley powdery mildew) [3, 8]: L (L shows the control value of 50% or less); Test G control value class (grape downy mildew) ([4]; 250 ppm spray): H (H shows the control value of more than 50%); Test E control value class (wheat brown rust) [5, 9]: H (H shows the control value of more than 50%)
